# The whole screen tested about 410,000 compounds, of which about 530 (0.13%) were called active. Inconclusive results, whose numbers are uncertain, are shown with a selection of clear calls. Calls follow the shape of the dose curve; as a rule, active = well fitted inhibition curve with a large enough effect; inconclusive = small, poorly fitted or top-dose-only effect, or another doubt; inactive = no such curve, though single readings can be large or run the other way. Potencies of inconclusive entries are doubtful fits and often do not repeat.
# Assay: qHTS of GLP-1 Receptor Inverse Agonists: Cytotox Screen
# Settings: HEK293 cAMP-luciferase reporter cells, luminescence, 24 h; activity change, negative = inhibition: at 38.3 µM (top of the series) unless noted
# Method in brief: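 Cells in DMEM/10% Nu serum/1% pen-strep, 1536-well format. Pre-incubated 12 h, dosed with 23 nL compound, incubated a further 24 h. Luciferase detection, 12 min at room temp, luminescence.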
# % is scaled to controls: 0 for no effect and ±100 for the full control effect; potency is read from the fitted curve at half-maximal effect.
SMILES,"activity change, negative = inhibition",Potency
CCCCNC(=O)c1ccc(NC(C)=O)c(Cl)c1,inactive: 18.2%,
CC(=O)N1CCCc2cc(S(=O)(=O)N3CCCC(C(=O)NCc4ccc(C)cc4)C3)ccc21 (centres undefined),,"inconclusive: 28.2 µM [inhibitor, single point]"
Cc1sc(NC(=O)CCl)c(C(=O)c2ccccc2)c1C,,"inconclusive: 10 µM [inhibitor, single point]"
CCOC(=O)C1=C(O)/C(=C/c2ccc(OCC(=O)O)c(OC)c2)SC1=Nc1ccc(OCC)cc1,inactive: 4.98%,
S=c1[nH]nc(Nc2cccc3ccccc23)s1,,"inconclusive: 0.794 µM [inhibitor, full curve, poor fit]"
CC(C)(C)NCC(O)CON=C1c2ccccc2-c2ccccc21 (centres undefined),,"inconclusive: 28.2 µM [inhibitor, single point]"
CCOc1cc(NC(=S)Nc2ccccc2OC)c(OCC)cc1NC(=O)c1ccccc1C,,"inconclusive: 3.16 µM [inhibitor, full curve, poor fit]"
Cn1cnc(S(=O)(=O)N2CCN(c3ccc(Cl)cc3)CC2)c1,,"inconclusive: 28.2 µM [inhibitor, single point]"
C=C(C)C(=O)Nc1cccnc1Oc1ccc(F)cc1F,,"inconclusive: 28.2 µM [inhibitor, single point]"
CCNC(=S)NCc1ccco1,inactive: -8.04%,
COc1ccccc1C(=O)NNC(=O)C(=O)Nc1ccc(C)cc1,,"inconclusive: 14.1 µM [inhibitor, single point]"
O=C(O)CNc1ncccc1[N+](=O)[O-],,"inconclusive: 7.94 µM [inhibitor, partial curve]"
CCN1CCC2(CC1)N=C(c1ccc(F)cc1)C(=S)N2C(=O)c1ccc(C(C)(C)C)cc1,,"inconclusive: 28.2 µM [inhibitor, single point]"
O=C(Nc1ccc(C(O)(C(F)(F)F)C(F)(F)F)cc1)c1ccc(Cl)c([N+](=O)[O-])c1,,"inconclusive: 20 µM [inhibitor, single point]"
COc1ccc(NS(=O)(=O)c2cccc3ccccc23)cc1,,"inconclusive: 7.94 µM [inhibitor, partial curve, poor fit]"
O=C(Nc1ccc(C(=O)OC[C@@H]2CCCN3CCCC[C@H]23)cc1)c1cccc(Br)c1,,"inconclusive: 28.2 µM [inhibitor, single point]"
COc1ccc(CN(C)CC(O)COc2ccc(-c3ccccc3)cc2)cc1OC (centres undefined),,"inconclusive: 28.2 µM [inhibitor, single point]"
COc1ccc(CN2C(=O)/C(=C/c3ccncc3)SC2=S)cc1,,"inconclusive: 20 µM [inhibitor, single point]"
CN(C)CCC=C1c2ccccc2C=Cc2ccccc21,,"inconclusive: 20 µM [inhibitor, single point]"
CN(C)C(=S)N=c1ssc(=S)n1Cc1ccccc1,,"inconclusive: 0.891 µM [inhibitor, full curve, poor fit]"
C/C(=N\NC(=S)NCCc1ccccc1)c1cccc(Br)c1,,"inconclusive: 22.4 µM [inhibitor, single point]"
Cc1cn([C@@H](CCCCNC(=O)OC(C)(C)C)C(=O)NCCCCCCCCCCC(=O)N2CCN(C(=O)OC(C)(C)C)CC2)nn1,,"inconclusive: 4.47 µM [inhibitor, partial curve]"

SMILES,"activity change, negative = inhibition",Potency
COc1cc(/C=N/N=C(/N)c2nonc2N)cc(Br)c1OCc1ccccc1C,,"inconclusive: 28.2 µM [inhibitor, single point]"
Cc1cc(C)c(NC(=O)c2sc3nc4c(cc3c2N)C(=O)CC(C)(C)C4)c(C)c1,inactive: 6.12%,
Cc1ccc(S(=O)(=O)c2nc(-c3ccccc3Cl)oc2NCCCN2CCOCC2)cc1,inactive: 0.58%,
COc1ccc(/C=N/NC(=O)c2cccnc2)cc1CN1CCOCC1,inactive: -11%,
CCn1c(SCC(=O)N(C)CCC#N)nc2cc(S(=O)(=O)N3CCOCC3)ccc21,inactive: 8.18%,
CNC(=O)/C(C#N)=C/c1cn(CC(=O)OC)c2ccccc12,,"inconclusive: 11.2 µM [inhibitor, single point]"
O=C1C(=O)N(C2CCN(C(=O)c3ccccc3F)CC2)CCN1Cc1ccc(F)cc1,inactive: -11.1%,
COc1ccc(Cl)cc1NC(=O)CSc1ccc2nnc(CCNS(=O)(=O)c3ccccc3)n2n1,inactive: 4.72%,
COc1cc(/C=N/n2c(C3CCCCC3)n[nH]c2=S)ccc1O,inactive: -1.45%,
COc1ccc(C(=O)NC(=S)Nc2ccccc2N2CCCCC2)cc1[N+](=O)[O-],,"inconclusive: 3.55 µM [inhibitor, full curve, poor fit]"
COc1cc(Cn2c(-c3nonc3N)nc3ccccc32)ccc1C,,"inconclusive: 1.78 µM [inhibitor, full curve]"
CCOC(=O)CN(c1ccccn1)S(=O)(=O)c1ccccc1,inactive: 4.22%,
O=C(CCc1ccccc1)OCCOC(=O)CCc1ccccc1,,"inconclusive: 0.501 µM [inhibitor, full curve, poor fit]"
FC(F)(F)c1cnc2c(c1)[nH]c(=S)n2-c1ccc(Cl)cc1,,"inconclusive: 31.6 µM [inhibitor, single point]"
O=C(Nc1ccc(F)cc1)c1cc(-c2ccncc2)nc2c(Cl)cccc12,,"inconclusive: 28.2 µM [inhibitor, single point]"
O=C(Cn1cc2c(n1)CCCC2)NCCCN1CCN(c2ccccc2F)CC1,inactive: -2.32%,
NC(=O)C1CCN(c2oc(-c3cccs3)nc2S(=O)(=O)c2ccc(Br)cc2)CC1,,"inconclusive: 28.2 µM [inhibitor, single point]"
CCc1nnc(NS(=O)(=O)c2ccc(NC(=O)c3ccc([N+](=O)[O-])s3)cc2)s1,inactive: -10%,
CN(Cc1ccccc1)C(=O)c1cccc(NC(=O)Cc2cccc([N+](=O)[O-])c2)c1,,"inconclusive: 20 µM [inhibitor, single point]"
O=C(CNC(=O)c1ccccc1F)NCCOc1ccccc1Cl,,"inconclusive: 0.501 µM [inhibitor, full curve, poor fit]"
COc1ccc(CC(=O)Nc2ccc(S(=O)(=O)N(C)C3CCN(C)CC3)cc2)cc1,inactive: -4.93%,
CCCCN(CC)CCNC(=O)c1cc2c(=O)[nH]c3ccccc3c2s1,,"inconclusive: 28.2 µM [inhibitor, single point]"

# Source: PubChem BioAssay AID624418 (National Center for Advancing Translational Sciences (NCATS), 2012)
